The values below come from patent publication US10864269B2, “Therapeutic combinations comprising anti-CD73 antibodies and uses thereof” (MedImmune Limited, priority 2014, dated 2020).

The test system of the test is recombinant soluble CD73 ECD as well as native CD73 displayed on cells. Description: Inhibition of CD73 activity by lead antibody. It counts as biochemical.

B1: CD730010: IgG1 with VL SEQ ID NO:3 and VH SEQ ID NO: 4; lead antibody (antibody, V domains shown)
VH: [letters of about 100 residues left out]LGYSTIDYWGRGTLVTVSS
VL: LPVLTQPPSVSGTPGQRVTISCSGSLSNIGRNPVNWYKQVPGTAPKLLIYLNNQRPSGVPDRFSGSKSGTSASLAISGLQSEDEADYYCATWDDSLNGWLFGGGTKLTVL
Regarding B1, the “activity of recombinant soluble CD73 ECD and native CD73 displayed on cells” value is given as “inhibit”.
